Results published in patent EP0093620A1, “Fungicidal N-phenylcarbamates” (priority 1982, dated 1983).

Tests used:
[1] = system: mixed spore suspension of the drug-resistant and drug-sensitive strain of Sphaerotheca fuliginea; assay: Preventive effect on powdery mildew of cucumber, mixed spore suspension, sole and combined use; details: Podosphaera fuliginea, topical, 240 h, read-out: Prevention value
[2] = system: mixed spore suspension of the drug-resistant and drug-sensitive strain of Botrytis cinerea; assay: Preventive effect on gray mold of tomato, mixed spore suspension, sole and combined use; details: sole use

Row | SMILES | pest or weed control at 20 ppm [1] [%] | pest or weed control at 100 ppm [1] [%] | Prevention value ([2]; 20 ppm active ingredient) [%] | Prevention value ([2]; 100 ppm active ingredient) [%] | Prevention value ([2]; 500 ppm active ingredient) [%] | pest or weed control at 500 ppm [1] [%]
1 | CCOC(=O)NC(=S)Nc1ccccc1NC(=S)NC(=O)OCC [F, 1,2-Bis(3-ethoxy-carbonyl-2-thio-ureido)benzene] | 8 | 43 |  |  |  | 
2 | CCCCNC(=O)n1c(NC(=O)OC)nc2ccccc21 [A, Methyl 1-(butyl-carbamoyl)benz-imidazol-2-yl-carbamate] | 12 | 45 |  |  |  | 
3 | COC(=O)NC(=S)Nc1ccccc1NC(=S)NC(=O)OC [E, 1,2-Bis(3-methoxy-carbonyl-2-thio-ureido)benzene] | 10 | 44 |  |  |  | 
4 | CCOc1ccc(NC(=O)OC(C)C)cc1COC [compound 77, isopropyl N-(3-methoxymethyl-4-ethoxyphenyl)carbamate] | 0 | 42 | 0 | 40 |  | 
5 | CCOC(=O)C1(C)OC(=O)N(c2cc(Cl)cc(Cl)c2)C1=O (racemic) [L, Ethyl (RS)-3-(3',5'-dichlorophenyl)-5-methyl-2,4-dioxo-oxazolidine-5-carboxylate] |  |  |  | 12 | 42 | 
6 | CC(C)NC(=O)N1CC(=O)N(c2cc(Cl)cc(Cl)c2)C1=O [Compound J, 3-(3',5'-Dichloro-phenyl)-1-isopropyl-carbamoylimida-zolidin-2,4-dione] |  |  |  | 18 | 46 | 
7 | CC12CC1(C)C(=O)N(c1cc(Cl)cc(Cl)c1)C2=O (stereo not shown) [I, N-(3',5'-Dichloro-phenyl)-1,2-dimethyl-cyclopropane-1,2-di-carboximide] |  |  | 22 | 48 |  | 
8 | c1ccc2[nH]c(-c3cscn3)nc2c1 [B, 2-(4-Thiazolyl)benz-imidazole] |  | 10 |  |  |  | 42
9 | C=CC1(C)OC(=O)N(c2cc(Cl)cc(Cl)c2)C1=O (stereo not shown) [K, 3-(3',5'-Dichloro-phenyl)-5-methyl-5-vinyloxazolidin-2,4-dione] |  |  | 15 | 42 |  | 
10 | COC(=O)Nc1nc2ccccc2[nH]1 [C, Methyl benzimidazol-2-ylcarbamate] | 8 | 42 |  |  |  | 
11 | CCOc1ccc(NC(=O)OC(C)C)cc1CC [Compound No. 50, isopropyl N-(3-ethyl-4-ethoxyphenyl)carbamate] | 0 | 44 | 0 | 40 |  | 
12 | c1coc(-c2nc3ccccc3[nH]2)c1 [D, 2-(2-Furyl)benz-imidazole] |  | 0 |  |  |  | 36
